# Results: article PMC4336329 (PLoS ONE, 2015)
# Out of some 310,000 compounds screened, about 14,000 (4.5%) showed an effect of 50% or more. The effect is printed as a negative number. This is one part of the list.
# Molecular target: human ether-à-go-go-related gene (hERG) potassium channel (human, UniProt Q12809)
# Experiment: primary screen, population patch clamp on CHO cells stably expressing hERG
# 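Further: peak tail current of the secondary pulse compared with the same well before compound.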
# Sequence of human ether-à-go-go-related gene (hERG) potassium channel (Q12809 whole entry, looked up): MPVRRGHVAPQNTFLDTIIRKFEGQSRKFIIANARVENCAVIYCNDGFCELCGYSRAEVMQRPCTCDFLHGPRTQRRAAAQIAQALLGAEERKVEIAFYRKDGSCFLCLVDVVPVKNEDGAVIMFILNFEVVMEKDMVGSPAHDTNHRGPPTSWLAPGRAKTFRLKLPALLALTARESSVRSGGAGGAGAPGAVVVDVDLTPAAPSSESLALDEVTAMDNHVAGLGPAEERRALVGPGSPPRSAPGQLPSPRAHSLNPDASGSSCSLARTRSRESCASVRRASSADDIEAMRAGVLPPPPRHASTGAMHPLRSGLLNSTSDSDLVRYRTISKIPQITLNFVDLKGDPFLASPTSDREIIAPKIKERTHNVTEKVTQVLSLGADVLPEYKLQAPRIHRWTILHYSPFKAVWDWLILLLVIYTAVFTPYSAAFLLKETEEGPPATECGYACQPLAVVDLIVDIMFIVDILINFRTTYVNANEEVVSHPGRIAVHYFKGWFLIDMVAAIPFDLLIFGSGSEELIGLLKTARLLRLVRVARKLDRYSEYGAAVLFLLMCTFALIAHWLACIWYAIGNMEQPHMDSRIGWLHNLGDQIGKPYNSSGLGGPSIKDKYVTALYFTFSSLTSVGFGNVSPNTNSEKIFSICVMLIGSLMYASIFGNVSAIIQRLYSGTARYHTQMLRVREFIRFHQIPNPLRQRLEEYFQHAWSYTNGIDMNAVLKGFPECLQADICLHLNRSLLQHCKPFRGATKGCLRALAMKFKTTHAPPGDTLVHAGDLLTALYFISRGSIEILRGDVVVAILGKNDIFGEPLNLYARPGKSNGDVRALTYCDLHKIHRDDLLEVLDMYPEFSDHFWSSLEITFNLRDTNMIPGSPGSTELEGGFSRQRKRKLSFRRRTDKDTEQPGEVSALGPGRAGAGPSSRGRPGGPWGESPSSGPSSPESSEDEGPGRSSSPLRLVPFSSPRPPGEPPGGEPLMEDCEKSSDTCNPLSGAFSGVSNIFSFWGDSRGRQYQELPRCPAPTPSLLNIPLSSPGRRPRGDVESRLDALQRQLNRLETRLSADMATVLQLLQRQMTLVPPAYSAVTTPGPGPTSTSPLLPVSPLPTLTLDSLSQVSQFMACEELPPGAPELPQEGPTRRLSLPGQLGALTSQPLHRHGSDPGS
row,Structure (SMILES),"hERG current change (%, negative = inhibition) at 10uM"
1,N#Cc1ccc(CSc2nnc3ccccn23)cc1,-0.562%
2,O=C1NC(=S)N(c2ccc(F)cc2)C(=O)/C1=C/c1ccco1,18.4%
3,COCCNc1c(-c2cc3ccc(C)c(C)c3[nH]c2=O)nc2ccccn12,-74.9%
4,COc1ccc(S(=O)(=O)N(C)c2ccc(C(=O)NCC3CCCO3)cc2)cc1OC (centres unmarked),2.15%
5,O=C(Cn1cnc2c(nnn2Cc2ccc(F)cc2)c1=O)NCc1ccccc1,-11.1%
6,CC(C)(C)OC(=O)N[C@@H](C(=O)OC(C)(C)C)c1ccc(Br)cc1,1.17%
7,COc1ccc2c(CC(=O)NC(Cc3ccc(Cl)cc3)C(=O)O)cc(=O)oc2c1C (centres unmarked),3.13%
8,Cc1csc2nc(O)c(C(=O)NCCCc3ccccc3)c(=O)n12,-20%
9,Cc1cc(C)c(S(=O)(=O)Nc2ccccc2C(=O)OCC(=O)NCc2ccccc2)c(C)c1,-0.075%
10,CCOC(=O)C1(CCCc2ccccc2)CCN(C(=O)c2cnn(CC)c2)CC1,-64.2%
11,CCC(Sc1nc2cc(OC)c(OC)cc2c(=O)n1CCc1ccc(S(N)(=O)=O)cc1)C(=O)NCCOC (centres unmarked),-34.8%
12,COc1ccc(/C=N\NC(=O)c2ccc(-c3ccccc3)cc2)c(OC)c1OC,11.5%
13,CC(C)CC1NC(=O)N(CC(=O)N2CCCc3ccccc32)C1=O (centres unmarked),-1.52%
14,CC(Oc1ccc(Br)cc1)C(=O)NCC(c1cccs1)N1CCOCC1 (centres unmarked),-24.9%
15,COC(=O)CC(CP(=O)([O-])CN(C)C=O)C(=O)OC (centres unmarked),11%
16,COc1cccc(OCCSc2nnc3sc4ccccc4n23)c1,-21.1%
17,O=C(NC(=S)N(CCO)Cc1ccccc1)c1ccc(F)cc1Cl,4.31%
18,O=C1/C(=C/c2ccccn2)SC(=S)N1c1cccc(O)c1,3.17%
19,CCOc1ccc(CSC(CC(=O)O)C(=O)O)cc1 (centres unmarked),9.05%
20,Cc1noc(C)c1C(=O)N1CC(C)OC(C)C1 (centres unmarked),-0.435%
21,Cc1ccccc1/C=C/C1=NCCN1.O=C(O)C(=O)O,-2.49%
22,CCNC(=S)Nc1cc(-c2ccc(Cl)cc2)[nH]n1,23.2%

row,Structure (SMILES),"hERG current change (%, negative = inhibition) at 10uM"
1,CCOC(=O)c1cccc(S(=O)(=O)N(CCO)Cc2cc3cc(OC)c(OC)cc3[nH]c2=O)c1,-9.89%
2,COC(=O)c1ccc(-c2ccc(Cl)cc2)nc1C,16.4%
3,COc1cc(NC(=O)NCc2ccncc2)cc(OC)c1OC,-0.152%
4,C/C(=N/NC(=O)c1cc(-c2cccc([N+](=O)[O-])c2)n[nH]1)c1ccc(Cl)cc1,6.73%
5,COc1ccc(CC(C)NCCc2ccc(OC)c(OC)c2)cc1 (centres unmarked),-60.3%
6,O=c1c2ccccc2nc2n1CCCN2,10.9%
7,O=C(CSC(=S)N1CCSCC1)c1ccc(Cl)cc1,13.9%
8,Nc1nnc(C(=O)c2ccccc2N)s1,6.24%
9,CC(=O)Nc1ccc(NC(=O)C(C)OC(=O)C2(c3ccc(Cl)cc3)CCCC2)cc1 (centres unmarked),7.38%
10,CCC(C)c1ccc(OCC(=O)O)cc1 (centres unmarked),11.5%
11,O=C1CC(C(=O)Nc2ncccn2)C(c2ccccc2)O1 (centres unmarked),5.09%
12,Cc1ccc2c(c1)N(CCC(=O)NC1CCCCC1C)C(=O)CO2 (centres unmarked),25.9%
13,CCC(=O)c1ccc(OCC(O)CN2CCCCC2)cc1.Cl (centres unmarked),-21.8%
14,CCOC(=O)N1CCC(NS(=O)(=O)c2cc(Br)cc3c2N(C(=O)CC)CC3)CC1,3.15%
15,CCOC(=O)CSC1=C(C#N)C(C)C2=C(CCCC2=O)N1 (centres unmarked),-7.84%
16,COc1ccc(S(=O)(=O)N2CCC(=O)N2)cc1,3.18%
17,CC(C)(C)NC[C@H](O)COc1nsnc1N1CCOCC1.O=C(O)/C=C\C(=O)O,7.2%
18,Cc1c(C(=O)N2CCOCC2)[nH]c2c1C(=O)CC(c1ccc(Cl)cc1)C2 (centres unmarked),-45.5%
19,COc1cc2c(cc1OC)C(c1ccccc1)N(C(=O)CSCC(=O)O)CC2 (centres unmarked),28.5%
20,CC(C)N(Cc1nccn1C)C(=O)c1cc(COc2ccc3ncccc3c2)on1,9.33%
21,COc1ccc(C2C(C#N)=C(SCC(=O)Nc3ccc(C)cc3)NC3=C2C(=O)CC(C)(C)C3)cc1 (centres unmarked),-2.49%
22,Cc1occc1-c1nnc(SCC(=O)Nc2c(F)cccc2F)n1C,-7.23%
